Source: the supplement of paper PMC3334620
Over roughly 33,000 sequences, “E-score (-0.5 to 0.5)” has its median near -0.021; the highest 2% begin near 0.32. This is one part of the list.

Biological target: T1, Zap1 (UniProt P47043)
T1 sequence: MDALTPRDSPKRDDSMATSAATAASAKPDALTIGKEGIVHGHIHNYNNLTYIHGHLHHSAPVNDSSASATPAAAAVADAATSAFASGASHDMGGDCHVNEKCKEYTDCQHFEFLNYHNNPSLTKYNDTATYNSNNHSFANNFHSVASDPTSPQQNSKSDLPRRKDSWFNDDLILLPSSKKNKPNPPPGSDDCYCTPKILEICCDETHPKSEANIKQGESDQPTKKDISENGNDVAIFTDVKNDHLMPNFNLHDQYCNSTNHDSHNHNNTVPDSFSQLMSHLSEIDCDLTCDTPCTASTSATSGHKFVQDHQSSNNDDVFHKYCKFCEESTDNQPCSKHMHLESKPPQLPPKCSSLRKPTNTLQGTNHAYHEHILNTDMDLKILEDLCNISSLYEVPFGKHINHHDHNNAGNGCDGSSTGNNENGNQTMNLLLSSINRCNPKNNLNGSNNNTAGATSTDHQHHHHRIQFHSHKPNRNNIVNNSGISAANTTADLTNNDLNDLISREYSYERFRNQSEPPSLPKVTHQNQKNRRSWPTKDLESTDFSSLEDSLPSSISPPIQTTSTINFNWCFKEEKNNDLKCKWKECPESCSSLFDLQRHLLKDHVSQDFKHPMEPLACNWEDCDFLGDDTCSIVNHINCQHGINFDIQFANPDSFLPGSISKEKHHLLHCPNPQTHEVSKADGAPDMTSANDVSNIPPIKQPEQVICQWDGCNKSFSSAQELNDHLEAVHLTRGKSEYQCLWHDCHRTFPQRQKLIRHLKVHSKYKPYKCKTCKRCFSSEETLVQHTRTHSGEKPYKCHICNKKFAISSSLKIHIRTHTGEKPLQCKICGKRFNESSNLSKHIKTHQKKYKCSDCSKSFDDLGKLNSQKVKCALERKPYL
Assay: PBM E-score (8-mer binding enrichment) (E-score (-0.5 to 0.5)); higher = stronger / more preferred TF binding; most listed sequences are background and not binding sites
Details: protein concentration: 200 nM; construct: GST-full length
Method in brief: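 Bound GST-tagged yeast transcription factors, applied at about 100-200 nM to double-stranded universal all-10-mer Agilent arrays, were detected with fluorescent anti-GST. Scans were normalised with masliner. A modified Wilcoxon-Mann-Whitney statistic, the E-score, was assigned to each ungapped eight-base word pooled with its reverse complement by the Universal PBM Analysis Suite.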

Sequence | PBM E-score
CGGCCTGA | -0.1
AAGCGGCC | -0.128
ATTTAGAA | 0.0699
CCGTACCG | -0.0718
CTGGTCAA | 0.0546
CTAGACCA | 0.0284
AGTACAAC | -0.0141
GGACACAC | -0.127
CACTAGGG | 0.298
CGAGCGCG | -0.0778
ACTCAGGG | 0.0842
CCTAGTTC | -0.00448
AAGTATAG | -0.0711
CAATGCGG | 0.0126
TATTTTCA | 0.182
ACTCGTCG | -0.156
AGCTACCT | 0.0784
TCTGGGAA | -0.00205
AATCGACA | 0.197
ATTGCGAG | -0.116
ATGTCATA | -0.0263
GCCACCAA | -0.0712
CACACCAA | 0.132
GTTCTAGA | 0.103
AGCTTTTG | -0.104

Sequence | PBM E-score
TCGTCGAA | -0.051
CTGCTCCA | -0.0925
CCTTGACG | 0.115
AATTACGA | 0.117
GGTCTCCA | 0.0867
GAGTCTTA | -0.368
CCATGACC | 0.416
AGAGCGTG | -0.169
AGCCGCGC | -0.0715
CACAAGGG | 0.183
AGGTGGCC | 0.0313
AGTGGGAC | -0.224
ATAAGTAG | -0.176
ACACAGGT | 0.0457
CTTATCTA | 0.115
ATGCGAAA | 0.0458
AGATGCCA | -0.238
CCTTCCAG | 0.113
GGCCCGCA | -0.143
AATGAAGA | 0.0315
CGGTATCA | 0.0813
CCAACGGG | 0.144
GACGTCCC | -0.181
AGAACATG | -0.0176
AGGTCGGA | 0.00598

Sequence | PBM E-score
GCCCTTCA | 0.0388
TGCTTAAA | 0.0825
CATGTATC | -0.101
ATTTACTC | 0.1
TAAACCAA | 0.199
AGCGTAAT | -0.0603
CGGCTGCC | -0.0566
ACGGGCCG | -0.216
AGGATGTG | 0.0127
TCCAGTCA | -0.154
GATTTAGC | 0.118
GCATGACA | -0.134
ATAGACAT | -0.0121
CTTCGGCC | -0.221
GGAGACCC | 0.124
GATTGCCA | -0.122
AACCAAAT | 0.223
CTGCGTTA | -0.121
ATTATGAG | -0.0122
ATCCACAG | 0.0245
AGTCTTCA | -0.166
AGTAGGGG | 0.00615
AACGAGGC | -0.0552
AAAGTTGT | 0.208
GGCTGTGA | -0.0511

Sequence | PBM E-score
GAGCAACC | 0.0661
ATTAGACG | 0.0244
ATTGAATA | 0.17
CGAACGGC | -0.0116
GGCAGTGA | -0.276
AAAAGTTA | 0.17
GCGTACGC | -0.175
ACTTTCGA | 0.0778
AATCGGCA | 0.00192
CAAAAGAG | 0.109
CTCACTGA | -0.0315
GGGCAGAC | -0.266
CACCGGCC | -0.0683
CGATGGAC | -0.00329
AATTCAAC | 0.0874
CTCCGGAA | -0.251
ACTATCCG | 0.0242
GACTACGC | -0.338
ATATTTGG | 0.0679
CCTACAGG | 0.0192
CCAGCCCG | -0.165
TCTTTCCA | -0.0633
ATAACAAG | 0.142
AAAGGTAA | 0.361
TATGATCA | 0.146

Sequence | PBM E-score
GATCCGAA | 0.014
AGAGGTAA | 0.298
ATGGAACA | -0.031
AGGGAAAC | -0.178
CCCTTAGC | 0.0213
CGTTAAAC | 0.21
CACTAAAA | 0.121
ATTACGGA | 0.126
GGAAAAGA | -0.0998
AGGATCTA | -0.358
GGCCGCAC | -0.106
GATGTAAA | -0.0511
TCGTAACA | 0.0696
AATCCCGT | 0.0467
GCCGCGCA | -0.332
ACTCAGGA | 0.12
GCGGTAAC | 0.32
AAGATCGG | -0.142
AAAACGTG | -0.101
GGCCGAAA | 0.0877
CTCCTTGC | -0.154
AACGAAGA | 0.047
CCTATGGC | -0.126
AAACGGTC | 0.097
AGAATGGG | 0.0885

Sequence | PBM E-score
CGTGGACA | 0.0459
AACCGTTG | 0.25
CGCATGCG | -0.0521
ACGGTCGA | -0.0848
ACAGGGCC | 0.0475
CTACAGCC | -0.139
CTAGGAAC | 0.0514
AAAACTGC | -0.047
AAAGCCGT | -0.0578
CTGAATGA | 0.0581
ATCTTTTA | 0.09
GCACGGGC | -0.249
ACGCGTCT | -0.267
GACGTCAA | 0.02
GCAAGTGC | -0.209
ATAGAAGG | 0.102
AGCCCCTG | -0.231
AACCCTAA | 0.452
AGTGCCCG | -0.203
CTGCGCTC | -0.236
AACGTAAA | 0.199
ATGATGTG | -0.0157
ATAGGTCC | 0.116
CGTCAGAC | -0.11
AGATTTTC | -0.0514

Sequence | PBM E-score
CGTCCGAA | -0.0179
GTCTTTTA | -0.00522
AACGGCGC | -0.21
CACGGCAG | -0.00889
CACGAGAA | -0.0171
GACCTAGC | -0.0032
GCGGTTAA | 0.356
CTCGTGAA | 0.00434
CCATCGGA | -0.174
GCTTTTAC | -0.0332
GTGAACGA | -0.00586
AGAGGCCG | -0.144
ATATAAAA | 0.227
CCGGCACA | -0.107
ACTTATCT | 0.0441
ACGGTTTA | -0.00711
ATTGATGC | 0.0558
GCATAACA | 0.0518
CGATCGAG | -0.0245
GCATGGAC | -0.108
CTGAATCA | 0.0173
CAGACCGG | -0.116
